Reference: patent US20250043025A1 (CALICO LIFE SCIENCES, published 2025)

B1: anti-PAPP-A antibody 1 (Ab1) (antibody, human IgG1, kappa, L234A L235A)
heavy: EVQLVESGGGVVQPGRSLRLSCAASGFTFSSYAMHWVRQAPGKGLEWVAVISYDGSIKYYAD[left out - about 20 residues]MNSLRAEDTAVYYCARHNRIYSWGWHTFDIWGQGTLVTVSSASTKGPSVFPLAPSSKSTSGGTAALGCLVKDYFPEPVTVSWNSGALTSGVHTFPAVLQSSGLYSLSSVVTVPSSSLGTQTYICNVNHKPSNTKVDKKV[left out - human IgG1 Fc with changes]
light: IQMTQSPSSLSASVGDRVTITCRASQDISIYLNWYQQKPGKAPKLLIYGASSLQSGVPSRFSGSGSGTDFTLTISSLQPEDFATYYCQQADAGPWKFGGGTKVEIKRTVAAPSVFIFPPSDEQLKSGTASVVCLLNNFYPREAKVQWKVDNALQSGNSQESVTEQDSKDSTYSLSSTLTLSKADYEKHKVYACEVTHQGLSSPVTKSFNRGEC
notes: Fully human IgG expressed in EXPI293 cells
B2: anti-PAPP-A antibody 3 (Ab3) (antibody, human IgG1, kappa, L234A L235A)
heavy: EVQLVESGGGVVQPGRSLRLSCAASGFTFSSYGMHWVRQAPGKGLEWVAVISYDGRNKYYAD[left out - about 20 residues]MNSLRAEDTAVYYCARYKPMPFDVWGQGTLVTVSSASTKGPSVFPLAPSSKSTSGGTAALGCLVKDYFPEPVTVSWNSGALTSGVHTFPAVLQSSGLYSLSSVVTVPSSSLGTQTYICNVNHKPSNTKVDKKV[left out - human IgG1 Fc with changes]
light: DIQMTQSPSSLSASVGDRVTITCRASQSISSYLNWYQQKPGKAPKLLIYEASILQSGVPSRFSGSGSGTDFTLTISSLQPEDFATYYCGQSYYTPFPFGGGTKVEIKRTVAAPSVFIFPPSDEQLKSGTASVVCLLNNFYPREAKVQWKVDNALQSGNSQESVTEQDSKDSTYSLSSTLTLSKADYEKHKVYACEVTHQGLSSPVTKSFNRGEC
notes: Fully human IgG
B3: anti-PAPP-A antibody 4 (Ab4) (antibody, human IgG1, kappa, L234A L235A)
heavy: EVQLVESGGGVVQPGRSLRLSCAASGFAFSTYGMHWVRQAPGKGLEWVAVIRYDGQEKYYAD[left out - about 20 residues]MNSLRAEDTAVYYCARYKPMPFDVWGQGTLVTVSSASTKGPSVFPLAPSSKSTSGGTAALGCLVKDYFPEPVTVSWNSGALTSGVHTFPAVLQSSGLYSLSSVVTVPSSSLGTQTYICNVNHKPSNTKVDKKV[left out - human IgG1 Fc with changes]
light: B2 light with S31R, E50A, G89Q, Y92H, Y93P, P97T
notes: Fully human IgG
B4: anti-PAPP-A antibody 5 (Ab5) (antibody, human IgG1, kappa, L234A L235A)
heavy: EVQLVESGGGVVQPGRSLRLSCAASGFTFSSYGMHWVRQAPGKGLEWVAVIYYDGRRKYYADSVKGRFTISRDNSKNTLYLQMNSLRAEDTAVYYCARADMHRFDVWGQGTLVTVSSASTKGPSVFPLAPSSKSTSGGTAALGCLVKDYFPEPVTVSWNSGALTSGVHTFPAVLQSSGLYSLSSVVTVPSSSLGTQTYICNVNHKPSNTKVDKKV[left out - human IgG1 Fc with changes]
light: B2 light with S28D, S30I, E50V, I53S, G89Q, Y93S, T94P, F96Y, P97T
notes: Fully human IgG
B5: anti-PAPP-A antibody 6 (Ab6) (antibody, human IgG1, kappa, L234A L235A)
heavy: EVQLLESGGGLVQPGGSLRLSCAASGFTFSSYAMSWVRQAPGKGLEWVSAISMTVGRTYYADSVKGRFTISRDNSKNTLYLQMNSLRAEDTAVYYCARVWGGVRFDVWGQGTLVTVSSASTKGPSVFPLAPSSKSTSGGTAALGCLVKDYFPEPVTVSWNSGALTSGVHTFPAVLQSSGLYSLSSVVTVPSSSLGTQTYICNVNHKPSNTKVDKKV[left out - human IgG1 Fc with changes]
light: B2 light with S31T, E50V, G89Q, Y92S, Y93S, F96W, P97T
notes: Fully human IgG
B6: anti-PAPP-A antibody 2 (Ab2) (antibody, human IgG1, kappa, L234A L235A)
heavy: EVQLVESGGGVVQPGRSLRLSCAASGFTFSSYAMHWVRQAPGKGLEWVAVISYDGSIKYYAD[left out - about 20 residues]MNSLRAEDTAVYYCARHERIPPWGFHTFDIWGQGTLVTVSSASTKGPSVFPLAPSSKSTSGGTAALGCLVKDYFPEPVTVSWNSGALTSGVHTFPAVLQSSGLYSLSSVVTVPSSSLGTQTYICNVNHKPSNTKVDKKV[left out - human IgG1 Fc with changes]
light: B2 light with S28G, S31I, E50G, I53S, G89Q, Y92D, Y93G, F96W, P97T
notes: Fully human IgG

What was measured:
mouse PAPP-A = biological target: T1, mouse PAPP-A (mouse, UniProt Q8R4K8 82-1624, limits assumed); experiment: SPR (Biacore), antibody captured on goat anti-human IgG Fc, PAPP-A as analyte
Chain of mouse PAPP-A (Q8R4K8 82-1624 limits assumed): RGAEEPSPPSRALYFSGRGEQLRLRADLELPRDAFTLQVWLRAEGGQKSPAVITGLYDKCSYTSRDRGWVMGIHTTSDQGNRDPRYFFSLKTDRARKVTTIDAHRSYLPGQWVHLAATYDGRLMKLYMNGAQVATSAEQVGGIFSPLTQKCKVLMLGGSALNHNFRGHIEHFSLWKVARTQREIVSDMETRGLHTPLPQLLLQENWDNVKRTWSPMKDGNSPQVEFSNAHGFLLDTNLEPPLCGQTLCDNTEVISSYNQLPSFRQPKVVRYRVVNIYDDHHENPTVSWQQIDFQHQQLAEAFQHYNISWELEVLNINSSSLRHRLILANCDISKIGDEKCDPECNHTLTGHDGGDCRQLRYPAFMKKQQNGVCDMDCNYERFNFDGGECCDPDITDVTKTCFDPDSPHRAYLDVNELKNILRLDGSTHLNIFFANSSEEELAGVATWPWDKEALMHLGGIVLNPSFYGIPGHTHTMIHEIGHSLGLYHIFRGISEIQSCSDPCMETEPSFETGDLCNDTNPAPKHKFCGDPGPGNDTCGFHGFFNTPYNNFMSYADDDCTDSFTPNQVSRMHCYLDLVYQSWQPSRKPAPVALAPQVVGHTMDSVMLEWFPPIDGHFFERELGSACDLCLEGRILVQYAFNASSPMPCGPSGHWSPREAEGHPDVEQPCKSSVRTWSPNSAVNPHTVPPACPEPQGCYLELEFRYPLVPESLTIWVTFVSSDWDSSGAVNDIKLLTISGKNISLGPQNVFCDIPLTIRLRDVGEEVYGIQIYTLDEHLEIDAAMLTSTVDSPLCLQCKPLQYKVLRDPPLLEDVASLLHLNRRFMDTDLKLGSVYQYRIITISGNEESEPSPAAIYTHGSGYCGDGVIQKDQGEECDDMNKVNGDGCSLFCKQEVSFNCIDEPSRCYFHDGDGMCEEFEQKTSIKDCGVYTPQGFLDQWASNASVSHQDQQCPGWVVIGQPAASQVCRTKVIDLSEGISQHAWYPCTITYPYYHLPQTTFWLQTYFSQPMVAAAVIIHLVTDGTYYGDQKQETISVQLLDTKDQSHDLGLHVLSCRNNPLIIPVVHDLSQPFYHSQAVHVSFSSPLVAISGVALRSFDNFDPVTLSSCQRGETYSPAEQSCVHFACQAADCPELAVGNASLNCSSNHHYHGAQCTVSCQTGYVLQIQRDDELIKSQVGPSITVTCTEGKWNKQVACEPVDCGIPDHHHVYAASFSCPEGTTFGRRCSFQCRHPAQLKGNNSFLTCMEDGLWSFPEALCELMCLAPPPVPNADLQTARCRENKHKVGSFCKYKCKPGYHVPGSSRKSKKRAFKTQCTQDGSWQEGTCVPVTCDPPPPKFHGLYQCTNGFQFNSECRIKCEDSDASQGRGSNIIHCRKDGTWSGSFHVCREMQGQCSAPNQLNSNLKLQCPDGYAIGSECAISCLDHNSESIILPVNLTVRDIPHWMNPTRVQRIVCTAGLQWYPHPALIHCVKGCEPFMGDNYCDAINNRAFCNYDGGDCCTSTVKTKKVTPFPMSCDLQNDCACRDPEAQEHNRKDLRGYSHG
T1 construct: Printed as 'full length'
From the text: (§1) A goat antibody specific to the Fc region of human IgG (Thermo Fisher Scientific, Waltham, MA, USA) was used to capture the monoclonal antibodies. The Fc specific antibody was covalently immobilized on carboxymethyl dextran matrix of the Biacore™ CM5 biosensor chip (Cytiva Life Sciences, Marlborough, MA, USA) via amino groups using an amine coupling kit (Cytiva) and the immobilization wizard option of the Biacore™ (Cytiva) instrument's controlling software. Carboxyl groups of the dextran matrix on the chip were activated with 100 mM N-hydroxysuccinimide and 400 mM 1-ethyl-3-(3-dimethylaminopropyl) carbodiimide hydrochloride. Goat anti-human IgG Fc (25 μg/mL; Thermo Fisher), diluted in 10 mM sodium acetate, pH 4.5, was injected across the activated surface. Once the level of binding response reached the targeted value of 10000 Resonance Units (RU), unreacted groups were deactivated by injection of 1 M ethanolamine. Approximately 10,000 RU of goat anti-human IgG Fc was immobilized on the chip surface of the flow cells, while a modified control matrix surface with similarly conjugated goat anti-human IgG Fc antibody was used as a reference surface.
(§2) Anti-PAPP-A monoclonal antibodies were diluted in the running buffer (HEPES buffered saline; HBS-P+, Cytiva) plus 0.1 mg/mL bovine serum albumin) to the concentration of 1 μg/mL were injected over the goat anti-human IgG Fc surface at a flow rate of 50 μL/minute for 25 seconds to achieve capture level of ˜100 to 110 RU. The net difference in the baseline signal and the signal after the completion of the antibody injection was taken to represent the amount of bound monoclonal antibody.
(§3) Each antigen binding experiment consisted of antigen association and antigen dissociation phases. Aliquots of recombinant PAPP-A proteins were injected at different concentrations at a flow rate of 50 μL/minute, for five minutes over the captured monoclonal antibodies and the reference surface to determine association rates.

[1] = biological target: NHP (cynomolgus monkey) PAPP-A (cynomolgus monkey (NHP), UniProt A0A2K5WE98 87-1619); experiment: as above
Chain of UniProt A0A2K5WE98 (A0A2K5WE98 entry or part of it): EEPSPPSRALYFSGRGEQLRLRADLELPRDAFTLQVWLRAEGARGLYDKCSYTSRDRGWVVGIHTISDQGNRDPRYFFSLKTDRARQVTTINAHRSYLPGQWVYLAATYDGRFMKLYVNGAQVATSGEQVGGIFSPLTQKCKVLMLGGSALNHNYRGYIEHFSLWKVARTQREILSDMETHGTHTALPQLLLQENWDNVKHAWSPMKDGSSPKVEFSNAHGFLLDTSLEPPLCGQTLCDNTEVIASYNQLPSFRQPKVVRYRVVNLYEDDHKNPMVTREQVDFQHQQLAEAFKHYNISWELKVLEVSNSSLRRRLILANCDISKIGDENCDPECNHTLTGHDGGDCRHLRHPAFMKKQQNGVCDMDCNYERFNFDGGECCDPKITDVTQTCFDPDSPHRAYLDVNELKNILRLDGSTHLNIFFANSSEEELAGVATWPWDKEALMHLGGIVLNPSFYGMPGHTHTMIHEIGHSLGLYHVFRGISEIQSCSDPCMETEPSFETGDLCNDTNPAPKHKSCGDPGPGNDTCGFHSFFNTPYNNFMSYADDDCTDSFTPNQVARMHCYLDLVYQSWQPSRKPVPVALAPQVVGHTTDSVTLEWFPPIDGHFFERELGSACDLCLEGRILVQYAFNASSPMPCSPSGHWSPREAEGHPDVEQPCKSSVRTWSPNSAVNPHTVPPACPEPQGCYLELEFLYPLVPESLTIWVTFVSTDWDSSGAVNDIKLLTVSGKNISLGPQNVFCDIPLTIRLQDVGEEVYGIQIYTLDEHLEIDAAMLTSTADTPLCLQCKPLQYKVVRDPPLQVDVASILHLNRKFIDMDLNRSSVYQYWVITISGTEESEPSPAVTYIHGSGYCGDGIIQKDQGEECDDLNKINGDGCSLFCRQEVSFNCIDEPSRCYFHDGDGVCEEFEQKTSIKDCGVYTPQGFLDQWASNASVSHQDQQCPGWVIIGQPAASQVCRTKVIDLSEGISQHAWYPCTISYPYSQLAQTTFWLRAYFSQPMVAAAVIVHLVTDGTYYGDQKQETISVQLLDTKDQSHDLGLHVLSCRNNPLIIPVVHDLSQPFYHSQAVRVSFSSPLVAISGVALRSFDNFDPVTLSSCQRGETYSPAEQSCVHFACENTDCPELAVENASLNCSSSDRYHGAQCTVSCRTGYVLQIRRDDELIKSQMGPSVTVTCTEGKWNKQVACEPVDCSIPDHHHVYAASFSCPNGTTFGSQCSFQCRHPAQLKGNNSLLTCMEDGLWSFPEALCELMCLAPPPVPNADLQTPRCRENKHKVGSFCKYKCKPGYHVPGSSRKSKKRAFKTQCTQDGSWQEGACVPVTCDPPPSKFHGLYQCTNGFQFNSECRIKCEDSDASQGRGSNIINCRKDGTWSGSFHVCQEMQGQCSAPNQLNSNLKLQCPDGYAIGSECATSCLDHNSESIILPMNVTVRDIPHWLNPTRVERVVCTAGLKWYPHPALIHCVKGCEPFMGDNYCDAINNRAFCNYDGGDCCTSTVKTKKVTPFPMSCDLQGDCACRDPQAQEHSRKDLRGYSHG
From the text: as §1, §2, §3

[2] = biological target: PAPP-A (species not stated for this assay) (Homo sapiens (Human), UniProt Q13219 82-1627); experiment: cell-based or functional assay
Chain of UniProt Q13219 (Q13219 82-1627 limits assumed): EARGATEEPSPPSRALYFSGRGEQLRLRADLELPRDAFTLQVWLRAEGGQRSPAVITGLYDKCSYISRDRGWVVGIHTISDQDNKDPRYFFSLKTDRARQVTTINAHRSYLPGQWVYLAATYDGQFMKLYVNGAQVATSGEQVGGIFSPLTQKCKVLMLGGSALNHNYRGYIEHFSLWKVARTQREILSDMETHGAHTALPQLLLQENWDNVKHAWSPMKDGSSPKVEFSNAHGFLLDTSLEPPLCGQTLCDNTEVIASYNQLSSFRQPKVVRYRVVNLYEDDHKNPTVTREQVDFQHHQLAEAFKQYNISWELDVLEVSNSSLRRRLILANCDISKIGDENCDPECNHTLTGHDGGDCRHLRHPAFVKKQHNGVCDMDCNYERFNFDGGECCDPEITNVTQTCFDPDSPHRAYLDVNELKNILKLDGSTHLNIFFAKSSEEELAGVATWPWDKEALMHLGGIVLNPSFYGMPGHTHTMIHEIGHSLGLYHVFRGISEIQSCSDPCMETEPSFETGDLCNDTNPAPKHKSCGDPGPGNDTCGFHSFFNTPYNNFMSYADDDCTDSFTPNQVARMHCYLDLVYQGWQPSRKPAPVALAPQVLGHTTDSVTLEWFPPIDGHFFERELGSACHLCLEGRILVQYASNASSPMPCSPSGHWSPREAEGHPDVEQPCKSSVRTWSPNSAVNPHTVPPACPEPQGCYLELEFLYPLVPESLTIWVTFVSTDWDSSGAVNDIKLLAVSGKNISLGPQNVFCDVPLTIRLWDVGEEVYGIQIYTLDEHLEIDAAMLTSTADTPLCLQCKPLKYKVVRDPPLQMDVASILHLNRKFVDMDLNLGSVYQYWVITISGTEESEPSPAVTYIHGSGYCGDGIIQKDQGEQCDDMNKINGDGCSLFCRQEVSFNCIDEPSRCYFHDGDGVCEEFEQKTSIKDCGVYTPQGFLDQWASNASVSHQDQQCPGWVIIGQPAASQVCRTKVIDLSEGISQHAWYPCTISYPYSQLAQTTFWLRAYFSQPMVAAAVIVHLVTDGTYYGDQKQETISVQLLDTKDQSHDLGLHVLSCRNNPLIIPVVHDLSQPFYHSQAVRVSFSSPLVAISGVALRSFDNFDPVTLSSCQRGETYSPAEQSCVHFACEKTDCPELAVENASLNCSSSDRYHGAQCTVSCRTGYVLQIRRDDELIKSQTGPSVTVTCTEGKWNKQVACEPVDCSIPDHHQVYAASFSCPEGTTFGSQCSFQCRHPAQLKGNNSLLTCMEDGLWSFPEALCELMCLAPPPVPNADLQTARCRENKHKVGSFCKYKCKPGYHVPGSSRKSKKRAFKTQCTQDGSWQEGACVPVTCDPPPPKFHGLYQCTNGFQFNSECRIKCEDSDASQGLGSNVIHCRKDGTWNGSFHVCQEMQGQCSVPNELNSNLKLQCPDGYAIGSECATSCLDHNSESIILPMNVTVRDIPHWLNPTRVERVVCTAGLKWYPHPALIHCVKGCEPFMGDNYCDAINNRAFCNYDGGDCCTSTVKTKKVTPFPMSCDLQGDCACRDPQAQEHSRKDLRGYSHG

Binder | Kd (mouse PAPP-A) [pM] | Kd [1] [pM] | inhibition of PAPP-A proteolytic activity (IC50) against IGFBP-2, western blotting [2] [pM] | inhibition of PAPP-A proteolytic activity (IC50) against IGFBP-4, western blotting [2] [pM] | inhibition of PAPP-A proteolytic activity (IC50) against IGFBP-5, western blotting [2] [pM]
B1 | < 2.9 | 17 | 370 | 100 | 70
B2 | 120 | 7.2 | 260 | 100 | 180
B3 | 860 | 35 | 310 | 100 | 310
B4 | 180 | 460 | 110 | 1880 | 3020
B5 | < 3 | < 1 | 180 | 120 | 90
B6 | 91 | 24 | 340 | 400 | 40

Changes are numbered by the printed parent chain.
